From publication PMC4336329 (PLoS ONE, 2015)
Out of some 310,000 compounds screened, about 2,200 (0.71%) showed an effect of 50% or more. The effect is printed as a negative number. This is one part of the list.

biological target: human ether-à-go-go-related gene (hERG) potassium channel (human, UniProt Q12809); assay: primary screen, population patch clamp on CHO cells stably expressing hERG
Sequence (Q12809 whole entry, looked up): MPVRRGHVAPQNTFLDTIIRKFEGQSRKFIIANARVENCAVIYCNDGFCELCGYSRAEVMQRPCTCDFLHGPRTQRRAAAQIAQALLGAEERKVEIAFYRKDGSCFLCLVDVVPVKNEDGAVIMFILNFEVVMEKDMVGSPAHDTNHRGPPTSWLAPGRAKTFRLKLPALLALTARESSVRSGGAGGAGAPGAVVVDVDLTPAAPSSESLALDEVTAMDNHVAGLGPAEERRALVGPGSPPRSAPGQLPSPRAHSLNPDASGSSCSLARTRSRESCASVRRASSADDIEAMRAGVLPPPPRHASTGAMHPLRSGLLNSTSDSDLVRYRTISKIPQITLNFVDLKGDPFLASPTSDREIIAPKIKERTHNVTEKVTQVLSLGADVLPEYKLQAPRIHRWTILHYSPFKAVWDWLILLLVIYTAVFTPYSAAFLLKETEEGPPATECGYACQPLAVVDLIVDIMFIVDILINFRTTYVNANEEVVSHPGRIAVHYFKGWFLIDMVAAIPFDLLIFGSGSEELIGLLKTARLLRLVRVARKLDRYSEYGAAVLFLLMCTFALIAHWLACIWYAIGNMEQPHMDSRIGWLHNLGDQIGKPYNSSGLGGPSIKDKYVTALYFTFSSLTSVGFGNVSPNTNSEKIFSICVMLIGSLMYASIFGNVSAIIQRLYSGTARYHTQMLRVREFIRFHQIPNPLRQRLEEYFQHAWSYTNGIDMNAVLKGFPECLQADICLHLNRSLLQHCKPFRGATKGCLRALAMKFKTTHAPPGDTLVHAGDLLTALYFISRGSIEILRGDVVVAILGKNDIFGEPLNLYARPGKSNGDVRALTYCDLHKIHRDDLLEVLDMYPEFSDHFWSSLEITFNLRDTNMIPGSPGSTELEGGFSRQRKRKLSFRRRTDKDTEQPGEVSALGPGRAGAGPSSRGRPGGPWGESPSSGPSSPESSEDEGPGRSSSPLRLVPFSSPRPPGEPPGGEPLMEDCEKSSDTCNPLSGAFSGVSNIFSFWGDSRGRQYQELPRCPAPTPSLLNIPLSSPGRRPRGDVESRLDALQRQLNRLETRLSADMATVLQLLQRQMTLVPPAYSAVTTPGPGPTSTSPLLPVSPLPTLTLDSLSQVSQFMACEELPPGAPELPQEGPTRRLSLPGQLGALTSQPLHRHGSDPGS

| Structure (SMILES) | hERG current change (%, negative = inhibition) at 1uM [%] |
| --- | --- |
| O=c1c2ccccc2oc2ncccc12 | -3.22 |
| COC(=O)CCCC1=CC2=C(c3ccccc3)C(=O)C(C)(OC(=O)C3CCCC3)C(=O)C2=CN1CCc1ccccn1 (stereo not drawn) | 8.76 |
| CCCSc1nc(C)c(CC(=O)OCC)c(=O)[nH]1 | -3.2 |
| CS(=O)(=O)N1CCN(C2Cc3ccccc3C2)CC1.O=C(O)C(=O)O | 5.22 |
| CCCn1c(N)cc(=O)n(C)c1=O | 14.3 |
| CN1CCN(c2nc3c(c(=O)[nH]c(=O)n3C)n2Cc2cccc3ccccc23)CC1 | 2.76 |
| O=C(CCCN1C(=O)/C(=C\c2cccs2)SC1=S)Nc1cccc(C(=O)O)c1 | 5.52 |
| Cc1nc(-c2ccccc2)sc1C(=O)CSc1ccc(Cl)cc1 | 6.07 |
| O=[N+]([O-])c1ccc(Oc2ccc(OCc3ccccc3)cc2)nc1 | 5.31 |
| CN(Cc1nc(CCc2ccccc2)no1)Cc1cccs1 | 2.37 |
| N#CCC1c2ccccc2CCN1C(=O)Nc1ccc(C(F)(F)F)cc1 (stereo not drawn) | -4.23 |
| C/C(N)=C(\C#N)C(=O)NCCc1ccccn1 | 15.8 |
| O=C1NC(c2ccc(F)cc2)Oc2ccccc21 (stereo not drawn) | 9.53 |
| Cc1ccccc1OCCCCN1CCCCC1 | 13.7 |
| CC1=CC=CC2=NC(=O)CC(C)(C(=O)O)N12 (stereo not drawn) | 12.8 |
| Cc1ccc(CN2CCN(C3CCC3)CC2CCO)cc1 (stereo not drawn) | 7.27 |
| COc1ccc2[nH]c(=O)c(CN(C(=O)c3cccnc3)c3ccc(C)cc3C)cc2c1 | 12.1 |
| CC(C)[C@H](CO)Nc1nc(Nc2ccc(Cl)c(C(=O)O)c2)c2ncn(C(C)C)c2n1 | 17.5 |
| CC(=O)c1ccc(NC(=S)Nc2cccc3ccccc23)cc1 | 2.49 |
| O=C1N=C(N2CCc3ccccc3C2)S/C1=C\c1cccc(O)c1 | 5.26 |
| COc1ccc(CNC(=O)C2CCN(S(=O)(=O)c3ccc(-c4nn[nH]n4)cc3)CC2)cc1 | -11.4 |
| O=C(O)C1CC1c1ccc(Br)cc1 (stereo not drawn) | 4.08 |

| Structure (SMILES) | hERG current change (%, negative = inhibition) at 1uM [%] |
| --- | --- |
| Oc1ccccc1-c1nc(N2CCN(Cc3ccccc3)CC2)c2ccccc2n1 | 10.2 |
| Cc1ccc(C)c(S(=O)(=O)N2CCCCC2CCNC(=O)C(=O)NCc2ccccc2)c1 (stereo not drawn) | 12.4 |
| Cc1ccccc1N1CCN(C(=O)c2ccccc2NC(=O)C2CC=CCC2C(=O)O)CC1 (stereo not drawn) | -3.93 |
| Cc1ccc(SCC2(O)CCN(C(=O)c3ccc(Cl)cc3)CC2)cc1 | -0.625 |
| Cc1ccnc(NC(=O)C2CCN(S(=O)(=O)c3ccc(Cl)c(C(F)(F)F)c3)CC2)c1 | -8.76 |
| O=C(COc1ncnc2ccccc12)NCc1ccc2c(c1)OCO2 | 7.58 |
| CCOc1ccc(CO[C@@H]2O[C@H](CO)[C@@H](O)[C@H](O)[C@H]2NC(C)=O)cc1OC | 16 |
| O=C(Nc1ccccc1F)c1ccc(OCc2ccccc2)cc1 | 9.48 |
| CC(C)(C)NC(=O)CN(C(=O)C(=O)Nc1ccc2c(c1)OCCO2)C1CC1 | 4.93 |
| COc1ccc(C(=O)Nc2ccccc2C(=O)N2CCCCCC2)cc1OC | -1.24 |
| CCOc1ccc(N2C(=O)CC(/C=C3/N(C)c4ccccc4C3(C)C)C2=O)cc1 (stereo not drawn) | 17.7 |
| COc1ccc(CC(=O)Nc2c3c(nn2-c2cccc(Cl)c2)CS(=O)(=O)C3)cc1 | -37.5 |
| COc1ccc(N2CCN(C(=O)c3cc(=O)c4cc(C)c(C)cc4o3)CC2)cc1 | 16.1 |
| Cc1ccc(NC(=O)c2cccc3c2C(=O)N(C2CCCCC2)C3)cc1 | 9.85 |
| CCOC(=O)c1c(-c2ccc(C)o2)csc1NC(=O)COC(=O)c1cccs1 | -22 |
| COc1ccc(OCC(=O)Nc2cc(-c3nn4c(C)nnc4s3)ccc2C)cc1 | 3.66 |
| C=CCNc1oc(-c2cccc3ccccc23)nc1C#N | -3.67 |
| CCN1CCCC1CNC(=O)C(NC(=O)C1CCC(C)CC1)C(C)C (stereo not drawn) | 11.6 |
| COc1cc(S(=O)(=O)N2CCN(C(=O)c3ccco3)CC2)c(OC)cc1C | 13.9 |
| COc1cccc(NC(=O)CC2C(=O)NC3CCCCC3N2C(=O)c2ccccc2)c1 (stereo not drawn) | 16.2 |
| Cc1ccc(NC(=O)C(=O)NCCN2CCN(C(=O)C(c3ccccc3)c3ccccc3)CC2)cc1 | 2.47 |
| Cc1nnc(SCc2cccc([N+](=O)[O-])c2)s1 | 12.9 |

| Structure (SMILES) | hERG current change (%, negative = inhibition) at 1uM [%] |
| --- | --- |
| COc1ccc(OCCn2ccnc2)cc1 | 10.3 |
| C=CCn1c(=S)sc2c(=O)[nH]cnc21 | 9.16 |
| Nc1nc(COC(=O)C2CC(=O)N(Cc3ccccc3Cl)C2)nc(Nc2ccccc2)n1 (stereo not drawn) | -12.3 |
| CCC(C)NC(=O)C(=O)NCc1ccncc1 (stereo not drawn) | 10.8 |
| COc1ccccc1NC(=S)N1CCc2cc(OC)c(OC)cc2C1 | 5.83 |
| Cc1cc(-n2c(C)cc(C(=O)CSc3ccc4c(c3)OCCO4)c2C)no1 | 13.4 |
| CCCCCn1c(SCC(=O)OCC)nc2cc(C(=O)N3CCC(C(N)=O)CC3)ccc2c1=O | -5.67 |
| CCN(CC)S(=O)(=O)c1ccc2nc(NC(=O)c3ccco3)sc2c1 | 5.2 |
| COC(=O)c1ccc(C2C(C#N)=C(N)Oc3cc(C)n(C)c(=O)c32)cc1 (stereo not drawn) | 8.93 |
| CCCc1ccc2oc(C(=O)NCCCN3CCOCC3)c(C)c2c1 | 1.02 |
| Cc1ccc(C(=O)COc2cccc(NC(=O)c3ccco3)c2)cc1 | 2.14 |
| CCCCn1c(-c2csc(C(C)C)c2)n[nH]c1=S | 19.3 |
| COC(=O)C1CCN(C(=O)Cc2c(OC)ccc3cc(Br)ccc23)CC1 | 12.2 |
| COc1ccc(N(CC(=O)NCc2ccc(C)cc2)S(=O)(=O)c2ccccc2[N+](=O)[O-])c(OC)c1 | 17.6 |
| CC(=O)Nc1ccc(NC(=O)CN(c2cccc([N+](=O)[O-])c2)S(C)(=O)=O)cc1 | 12.7 |
| CCOC(=O)c1cc(-c2ccc(N3CCOCC3)cc2)nn1-c1ccc(F)cc1F | -1.76 |
| Nc1ccc(C(=O)Oc2ccc([N+](=O)[O-])cc2)c(O)c1 | 11 |
| Cc1nn(C)cc1C(C(=O)NC1CCCCC1)N(C(=O)Cc1cccs1)c1ccc(Cl)cc1 (stereo not drawn) | 10.4 |
| CSc1cccc(NC(=O)CN(c2cc(C)ccc2C)S(C)(=O)=O)c1 | 2.09 |
| Cc1c(NC(=O)CCN2C(=O)c3ccccc3C2=O)c(=O)n(-c2ccccc2)n1C | -1.21 |
| CCc1ccc(NC(=O)COc2ccc(F)cc2C(=O)c2cnn(-c3ccccc3)c2)cc1 | 6.45 |
| COc1ccc(/C=N/NC(=O)c2nnn(-c3nonc3N)c2CN(C)c2ccccc2)cc1 | 13.6 |

| Structure (SMILES) | hERG current change (%, negative = inhibition) at 1uM [%] |
| --- | --- |
| N#CC(=C1CCCC1)c1nc(-c2cc3ccccc3oc2=O)cs1 | 9.21 |
| Cn1c(=O)c2c(nc(NCc3ccco3)n2CC(O)COc2ccccc2)n(C)c1=O (stereo not drawn) | -9.68 |
| Cc1cc(C)cc(N(CC(=O)N2CCC(C)CC2)S(=O)(=O)c2ccccc2)c1 | -12.4 |
| CN(C)CCc1cc2c(c3c1ccc1ccccc13)OCO2.Cl | 10.4 |
| Clc1ccc(-c2csc(N3CCN(c4ccccc4)CC3)n2)cc1 | 6.51 |
| CN1C(=O)C(CC(=O)Nc2ccc(F)cc2)N(Cc2ccco2)C1=S (stereo not drawn) | 1.77 |
| COC(=O)c1ccc(Nc2cc(C)nc3ncnn23)cc1 | 3.7 |
| CSc1nc2sc3c(c2c(=O)[nH]1)CC(C)(C)OC3 | 14.3 |
| Cc1ccc(C(=O)N2CCN(c3ccc(NC(=O)c4ccc(Br)o4)cc3)CC2)cc1 | -8.65 |
| C=CCc1cc(/C=N\NC(=O)CSc2nnc(CCCc3ccc(OC)c(C)c3)o2)cc(OC)c1O | 0.468 |
| Cn1nc(C(F)(F)F)c(-c2ccccc2)c1N | 16.1 |
| O=C1C(c2ccccc2)=[N+]([O-])c2ccccc21 | 13.2 |
| CCOc1c2ccc(C(=O)NCc3ccc4c(c3)OCO4)cc2nn1C | 13 |
| Cc1ccc(N(C(=O)c2ccc3c(c2)OCO3)C2C=CS(=O)(=O)C2)cc1 (stereo not drawn) | 2 |
| CC1(C(=O)c2ccccc2)C2c3c(ccc4ccccc34)OC(=O)C21C(=O)N1CCOCC1 (stereo not drawn) | 6.89 |
| CCN(CC)S(=O)(=O)c1ccc(N2CCOCC2)c(NC(=O)c2ccc(=O)n(C)n2)c1 | 0.667 |
| COc1ccc(CN2CCNC(=O)C2CC(=O)N(C)Cc2ccccn2)cc1OC (stereo not drawn) | 15 |
| O=C(CN1C(=O)NC(Cc2c[nH]c3ccccc23)C1=O)NC1CC1 (stereo not drawn) | 7.29 |
| O=C(Nc1ccc2oc(-c3ccccc3)nc2c1)c1cc(-n2cnnc2)ccc1Cl | 15.5 |
| COc1ccc(-n2c(N)c(-c3nc4ccccc4n3C)sc2=S)cc1 | 5.64 |
| CCC1(CC)NC(=O)N(CC(=O)OCC(=O)Nc2ccc(F)c(F)c2F)C1=O | 4.85 |
